These results are taken from PMC5515408.

This is one part of the list. At the low end of the ranking the order means little.

This assay concerns the target MAX:MAX (p21) (UniProt P61244-2). Kind of assay: protein-binding microarray (anti-MAX antibody). As to conditions: PBM: 15 mM Tris-HCl pH 7.5, 100 mM KCl, 0.075% NP40, 7.5 mM beta-mercaptoethanol, 375 ng/ul BSA, 8 ng/ul poly(dA-dT):(dA-dT), 550 ng complex, 60 min, room …; high values mean tight binding; double strand, one strand shown; sequences stand for … in CCGGC…TTAATAGCTAAGATTACTATATCGACG
On to TGAAGTCATGTA, for which the binding signal (log2 normalized fluorescence) turned out to be 0.195.

Sequence TGACACGGGTTT gave a binding signal (log2 normalized fluorescence) of 2.09. In turn, TTACAGGTGGTT came in with a binding signal (log2 normalized fluorescence) of 2.48.

For the sequence TGGCACCTGGCA, the binding signal (log2 normalized fluorescence) was 2.17.

In the case of TGAATGAAGGTA, the binding signal (log2 normalized fluorescence) was -0.325. As to TGAGAAAGAGTA, the binding signal (log2 normalized fluorescence) was -1.02. With TGAATATCCGTA the figure was -1.01; with TGATTTCCAGTA, -1.12; with TGAGAGGTTGTA, -0.435. With TGAAGGCCTGTA, the binding signal (log2 normalized fluorescence) is 0.00898. TGACTGAGTGTA had a binding signal (log2 normalized fluorescence) of -0.0431. In the case of TCTCAGGTGGTA, the binding signal (log2 normalized fluorescence) is 2.4. TGATGAAGGGTA came in with a binding signal (log2 normalized fluorescence) of -0.578.

TGACTCCCAGTA gave a binding signal (log2 normalized fluorescence) of -0.845.

As to TGAGACAGTGTA, the binding signal (log2 normalized fluorescence) was -0.443. In the case of TGAGTAAGGGTA it was -1.05; in that of TGACTGCTTGTA, -0.193; in that of TGAGAGGCCGTA, -0.846.

With TGAGAAAACGTA, the binding signal (log2 normalized fluorescence) is -0.596. Consider TGAGAAGGGGTA, for which the binding signal (log2 normalized fluorescence) was -0.308. Consider TGAAAATCCGTA, for which the binding signal (log2 normalized fluorescence) was -0.874.

In the case of TGAAAACCTGTA, the binding signal (log2 normalized fluorescence) is -0.14. With TGAGTTTGCGTA the figure was -0.942; with TGAAGCTACGTA, -0.84; with TTACACATGCTA, 3.23. As to TGACCGGAAGTA, the binding signal (log2 normalized fluorescence) was -0.775. TGAGCATGAGTA displayed a binding signal (log2 normalized fluorescence) of 1.93. With TGAGTTTGTGTA the figure was -0.951; with TGAAAGGCAGTA, -0.493. TGAAATGATGTA registered a binding signal (log2 normalized fluorescence) of -0.049. TGATCCTTAGTA had a binding signal (log2 normalized fluorescence) of -1.1. TGACAATGCGTA displayed a binding signal (log2 normalized fluorescence) of 0.927.

Regarding TGACCCGTCGGA, the binding signal (log2 normalized fluorescence) was -0.529. In the case of TGAGGCTTCGTA it was -0.948; in that of TGACAATTGGTA, -0.507. TGGCAAGTGGTA came in with a binding signal (log2 normalized fluorescence) of 0.992. With TGAAACATTGTA the figure was 0.094; with TGACGTCGTGTA, 0.752; with TGAACTGTTGTA, -0.584. TGACGCGTCGTG had a binding signal (log2 normalized fluorescence) of 0.94.

In the case of TGACTCAAGGTA, the binding signal (log2 normalized fluorescence) is 0.208.

Take TGAAGTTTCGTA: the binding signal (log2 normalized fluorescence) was -1.05. The sequence TGATGCAGGGTA registered a binding signal (log2 normalized fluorescence) of -0.0263. In the case of TGACACGTAACA, the binding signal (log2 normalized fluorescence) was 1.37. Turning to TGAAATCGTGTA, the binding signal (log2 normalized fluorescence) was determined as 0.588. The sequence TGAATCTTCGTA came in with a binding signal (log2 normalized fluorescence) of -0.77. For the sequence TGATTCCATGTA, the binding signal (log2 normalized fluorescence) is -0.26. TGACTGAACGTA had a binding signal (log2 normalized fluorescence) of -0.326. Sequence TGACAATCGGTA had a binding signal (log2 normalized fluorescence) of -0.724. With TGACACGTTTGA the figure was 2.82; with TGAAGATAGGTA, -1.1; with TGAGCGTGAGTA, 1.56.

The sequence TGAATTGAGGTA yielded a binding signal (log2 normalized fluorescence) of -0.518. With TGAGCCCGGGTA, the binding signal (log2 normalized fluorescence) was -1.09.

For TGATGATACGTA, the binding signal (log2 normalized fluorescence) is -0.0182. Consider TGAGGTGCCGTA, for which the binding signal (log2 normalized fluorescence) was -0.395. In turn, TGACACCTACTA showed a binding signal (log2 normalized fluorescence) of -0.0238.

Turning to TGAGCCAATGTA, the binding signal (log2 normalized fluorescence) is -0.709. Sequence TGATTAGGGGTA showed a binding signal (log2 normalized fluorescence) of -0.289. TGATAAATTGTA showed a binding signal (log2 normalized fluorescence) of -1.25. TGGCACGTGGTT showed a binding signal (log2 normalized fluorescence) of 3.33.

On to TGAGATCGGGTA, for which the binding signal (log2 normalized fluorescence) was -1.15. Turning to TGAAGTCGGGTA, the binding signal (log2 normalized fluorescence) was -1.26. Sequence TGATTTCACGTA had a binding signal (log2 normalized fluorescence) of -0.141.

For the sequence TGATTCCCTGTA, the binding signal (log2 normalized fluorescence) was -0.643. For the sequence TGATTGGCAGTA, the binding signal (log2 normalized fluorescence) is -0.607. In the case of TGAAAAACAGTA, the binding signal (log2 normalized fluorescence) is -0.841. TGAGGGAATGTA showed a binding signal (log2 normalized fluorescence) of -0.0661.

In turn, TGATCGTTCGTA displayed a binding signal (log2 normalized fluorescence) of -0.331. For TGAGTCTAAGTA, the binding signal (log2 normalized fluorescence) is -1.08.

As for TGATACGACGTA, the binding signal (log2 normalized fluorescence) is -0.643. In the case of TGAGGCTGCGTA it was -0.197; in that of TGCCTCGTGGTA, 3.36; in that of TGAATGTCTGTA, 0.29. With TGAGGTTCGGTA the figure was -0.923. TGATCTTTTGTA returned a binding signal (log2 normalized fluorescence) of -1.35. For TGACAACTGGTA, the binding signal (log2 normalized fluorescence) was -0.279.

TGAGAGGTCGTA had a binding signal (log2 normalized fluorescence) of -0.308. Consider CCACACGTGGTG, for which the binding signal (log2 normalized fluorescence) was 3.11. TGACCGGCGGTA: the binding signal (log2 normalized fluorescence) is -0.238. As to TGAGTTTAGGTA, the binding signal (log2 normalized fluorescence) was -0.968. With TGACAGACGGTA the figure was -0.0666. In turn, TAACACCTGGTG showed a binding signal (log2 normalized fluorescence) of 2.98. In the case of TGAACAGTGGTA it was -0.573; in that of GCTGACGCGGTT, -0.216; in that of TGACACGTAGCT, 1.51.

In turn, TGAGTATGCGTA had a binding signal (log2 normalized fluorescence) of 0.00997.

TGACCACTCGTA yielded a binding signal (log2 normalized fluorescence) of 0.109. In the case of TGACAAACCGTA, the binding signal (log2 normalized fluorescence) is -0.423. With TGAGAGGCGGTA, the binding signal (log2 normalized fluorescence) was -0.537.

TGATCAATAGTA displayed a binding signal (log2 normalized fluorescence) of -1. Regarding TGATGTGGGGTA, the binding signal (log2 normalized fluorescence) turned out to be 0.595.

Regarding TAAGACTTGGTA, the binding signal (log2 normalized fluorescence) is -0.976. In turn, TGACACGTTGTA had a binding signal (log2 normalized fluorescence) of 2.96. Take TGACACGTGGAT: the binding signal (log2 normalized fluorescence) was found to be 3.24. The sequence TGAAACTTTGTA came in with a binding signal (log2 normalized fluorescence) of -1.01. With TGACACGAGGTA the figure was 3.08; with TGACCAATTGTA, -0.72; with TCACATGTGTTA, 3.25. With TGATCAAATGTA the figure was -0.224. Take TGATGTTCCGTA: the binding signal (log2 normalized fluorescence) was -0.058. Regarding TGAGATACGGTA, the binding signal (log2 normalized fluorescence) was -0.729.

Regarding GTTCACGTGGTA, the binding signal (log2 normalized fluorescence) was determined as 3.37.

Sequence TGACCTGTCGTA had a binding signal (log2 normalized fluorescence) of -0.255. With TCGTACGTGGTA the figure was 1.45; with TGACGATCCGTA, -0.597; with TGACCGGGAGTA, -0.487.

TGATCTCACGTA came in with a binding signal (log2 normalized fluorescence) of -0.038. In the case of TCAAACATGGTA it was 1.7. TGACGTTCCGTA had a binding signal (log2 normalized fluorescence) of -0.512.

As to TGAGGGCTTGTA, the binding signal (log2 normalized fluorescence) was -0.432.

Consider TGATTGCCGGTA, for which the binding signal (log2 normalized fluorescence) is -0.626. In the case of TGACACGTGCCG it was 3.41; in that of TGAATGAACGTA, 0.00913; in that of CTTCTCTGTCTC, -1.47. As for TGAGGAGATGTA, the binding signal (log2 normalized fluorescence) is -0.451. TGAACTGTAGTA: the binding signal (log2 normalized fluorescence) is -0.787. The sequence TGAATAGCAGTA registered a binding signal (log2 normalized fluorescence) of -1.13. TGAGAACGTGTA: the binding signal (log2 normalized fluorescence) was found to be 2.16.

For TAACACGTGGTA, the binding signal (log2 normalized fluorescence) is 3.45.

As to TGAATTCGTGTA, the binding signal (log2 normalized fluorescence) was -0.0457. The sequence TGATATTGCGTA displayed a binding signal (log2 normalized fluorescence) of -0.611.

The sequence TGATGTGAAGTA came in with a binding signal (log2 normalized fluorescence) of -0.106.

In the case of TGAGTGTTGGTA, the binding signal (log2 normalized fluorescence) was -0.23.

Sequence TGATAAGGGGTA showed a binding signal (log2 normalized fluorescence) of -0.464.

The sequence TGACCCTCTGTA gave a binding signal (log2 normalized fluorescence) of -0.425. Turning to TTACACGTGGCG, the binding signal (log2 normalized fluorescence) was 3.07. TGAAGGCGAGTA displayed a binding signal (log2 normalized fluorescence) of -0.233.

As to TGAGACCATGTA, the binding signal (log2 normalized fluorescence) came out at 0.385. The sequence TGATTCGTTGTA returned a binding signal (log2 normalized fluorescence) of -0.814. Take TGATGCAATGTA: the binding signal (log2 normalized fluorescence) was -0.107. The sequence TGAAACAGGGTA came in with a binding signal (log2 normalized fluorescence) of -0.283.

Sequence TGATACGGCGTA returned a binding signal (log2 normalized fluorescence) of -0.891. Consider TGACGCCGTGTA, for which the binding signal (log2 normalized fluorescence) turned out to be 0.693.

Regarding TGAGCTATGGTA, the binding signal (log2 normalized fluorescence) is -0.544. In the case of TCAAAAGTGGTA, the binding signal (log2 normalized fluorescence) was -0.449. With TGAGCGGCAGTA the figure was -0.716.
